Not every detail of the peptide structures is certain; ends, links or a residue may be inferred. At least one compound was matched to its structure with a doubt left.
Each compound was assayed against T1, calcitonin receptors (CTR) (Homo sapiens, UniProt P30988) (assay: cAMP determination (HTRF, cAMP Dynamic 2 Kit) in cAMP Hunter HEK293-CT-R Gs cell line). Details: HEK293 cell line stably expressing CT-R; intracellular cAMP, HTRF.
T1 construct: expressed in transfected cells; host or cells: cAMP Hunter HEK293-CT-R Gs cell line (HEK293, stably transfected)
T1 sequence (P30988 25-474): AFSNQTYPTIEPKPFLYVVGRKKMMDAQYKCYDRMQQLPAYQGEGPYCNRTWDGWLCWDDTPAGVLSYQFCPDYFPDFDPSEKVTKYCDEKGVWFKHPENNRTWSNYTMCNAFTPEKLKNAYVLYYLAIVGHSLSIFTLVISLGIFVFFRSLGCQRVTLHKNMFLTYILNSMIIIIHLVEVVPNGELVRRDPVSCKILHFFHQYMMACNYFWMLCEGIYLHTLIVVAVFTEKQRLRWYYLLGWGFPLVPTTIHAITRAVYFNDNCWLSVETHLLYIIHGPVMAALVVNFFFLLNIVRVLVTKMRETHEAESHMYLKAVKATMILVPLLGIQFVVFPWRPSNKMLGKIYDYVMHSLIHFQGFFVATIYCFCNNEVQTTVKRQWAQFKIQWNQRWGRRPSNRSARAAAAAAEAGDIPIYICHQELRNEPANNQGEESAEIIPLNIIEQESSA
Format: cell-based
Description: Upon activation by a ligand, Gas-coupled GPCRs can upregulate intracellular cAMP level, and cAMP, as a second messenger, can mediate a series of cellular responses. The cAMP Hunter HEK293-CT-R Gs cell line, which overexpresses Gas-coupled calcitonin receptors (CTR), was used. The binding of calcitonin (or an analog thereof) to the overexpressed CTR upregulates intracellular cAMP level. The amount of intracellular cAMP produced after activation by the calcitonin (or an analog thereof) was detected using a cAMP Dynamic 2 Kit to evaluate the biological activity of the calcitonin (or an analog thereof). HEK293 cell line stably expressing CT-R was used. Stably transfected cells were stimulated with various concentrations of agonists. The time-resolved fluorescence resonance energy signal from the cells after stimulation with different doses was measured using HTRF technology, from which the biological activity of the agonist was subsequently calculated.

SMILES | EC50
CC(C)C[C@H](NC(=O)[C@H](CCCCN)NC(=O)CNC(=O)[C@H](CC(C)C)NC(=O)[C@@H](NC(=O)[C@@H]1CSSC[C@H](N)C(=O)N[C@@H](CO)C(=O)N[C@@H](CC(N)=O)C(=O)N[C@@H](CC(C)C)C(=O)N[C@@H](CO)C(=O)N[C@@H]([C@@H](C)O)C(=O)N1)C(C)C)C(=O)N[C@@H](CO)C(=O)N[C@@H](CCC(N)=O)C(=O)N[C@@H](CCC(=O)O)C(=O)N[C@@H](CC(C)C)C(=O)N[C@@H](Cc1c[nH]cn1)C(=O)N[C@@H](CCCCNC(=O)COCCOCCOCCNC(=O)CC[C@H](NC(=O)CCCCCCCCCCCCCCCCC(=O)O)C(=O)O)C(=O)N[C@@H](CC(C)C)C(=O)N[C@@H](CCC(N)=O)C(=O)N[C@H](C(=O)N[C@@H](Cc1ccc(O)cc1)C(=O)N1CCC[C@H]1C(=O)N[C@@H](CCCNC(=N)N)C(=O)N[C@H](C(=O)N[C@@H](CC(N)=O)C(=O)N[C@H](C(=O)NCC(=O)N[C@@H](CO)C(=O)NCC(=O)N[C@H](C(=O)N1CCC[C@H]1C(N)=O)[C@@H](C)O)[C@@H](C)O)[C@@H](C)O)[C@@H](C)O [Compound 18, Cys-Ser-Asn-Leu-Ser-Thr-Cys-Val-Leu-Gly-Lys-Leu-Ser-Gln-Glu-Leu-His-Lys(PEG3CH2CO-γGlu-octadecanedioic acid)-Leu-Gln-Thr-Tyr-Pr o-Arg-Thr-Asn-Thr-Gly-Ser-Gly-Thr-Pro-NH2] | 3.5 pM
CC(C)C[C@H](NC(=O)[C@H](CCCCN)NC(=O)CNC(=O)[C@H](CC(C)C)NC(=O)[C@@H](NC(=O)[C@@H]1CSSC[C@H](N)C(=O)N[C@@H](CO)C(=O)N[C@@H](CC(N)=O)C(=O)N[C@@H](CC(C)C)C(=O)N[C@@H](CO)C(=O)N[C@@H]([C@@H](C)O)C(=O)N1)C(C)C)C(=O)N[C@@H](CO)C(=O)N[C@@H](CCC(N)=O)C(=O)N[C@@H](CCC(=O)O)C(=O)N[C@@H](CC(C)C)C(=O)N[C@@H](Cc1c[nH]cn1)C(=O)N[C@@H](CCCCNC(=O)COCCOCCOCCOCCOCCNC(=O)CC[C@H](NC(=O)CCCCCCCCCCCCCCCCCCC(=O)O)C(=O)O)C(=O)N[C@@H](CC(C)C)C(=O)N[C@@H](CCC(N)=O)C(=O)N[C@H](C(=O)N[C@@H](Cc1ccc(O)cc1)C(=O)N1CCC[C@H]1C(=O)N[C@@H](CCCNC(=N)N)C(=O)N[C@H](C(=O)N[C@@H](CC(N)=O)C(=O)N[C@H](C(=O)NCC(=O)N[C@@H](CO)C(=O)NCC(=O)N[C@H](C(=O)N1CCC[C@H]1C(N)=O)[C@@H](C)O)[C@@H](C)O)[C@@H](C)O)[C@@H](C)O [Compound 5, Cys-Ser-Asn-Leu-Ser-Thr-Cys-Val-Leu-Gly-Lys-Leu-Ser-Gln-Glu-Leu-His-Lys(PEG5CH2CO-γGlu-eicosanedioic acid)-Leu-Gln-Thr-Tyr-Pro-Arg-Thr-Asn-Thr-Gly-Ser-Gly-Thr-Pro-NH2] | 2.8 pM
CC(C)C[C@H](NC(=O)[C@H](CCCCN)NC(=O)CNC(=O)[C@H](CC(C)C)NC(=O)[C@@H](NC(=O)[C@@H]1CSSC[C@H](N)C(=O)N[C@@H](CO)C(=O)N[C@@H](CC(N)=O)C(=O)N[C@@H](CC(C)C)C(=O)N[C@@H](CO)C(=O)N[C@@H]([C@@H](C)O)C(=O)N1)C(C)C)C(=O)N[C@@H](CO)C(=O)N[C@@H](CCC(N)=O)C(=O)N[C@@H](CCC(=O)O)C(=O)N[C@@H](CC(C)C)C(=O)N[C@@H](Cc1c[nH]cn1)C(=O)N[C@@H](CCCCNC(=O)COCCNC(=O)CC[C@H](NC(=O)CCCCCCCCCCCCCCCCCCC(=O)O)C(=O)O)C(=O)N[C@@H](CC(C)C)C(=O)N[C@@H](CCC(N)=O)C(=O)N[C@H](C(=O)N[C@@H](Cc1ccc(O)cc1)C(=O)N1CCC[C@H]1C(=O)N[C@@H](CCCNC(=N)N)C(=O)N[C@H](C(=O)N[C@@H](CC(N)=O)C(=O)N[C@H](C(=O)NCC(=O)N[C@@H](CO)C(=O)NCC(=O)N[C@H](C(=O)N1CCC[C@H]1C(N)=O)[C@@H](C)O)[C@@H](C)O)[C@@H](C)O)[C@@H](C)O [Compound 1, Cys-Ser-Asn-Leu-Ser-Thr-Cys-Val-Leu-Gly-Lys-Leu-Ser-Gln-Glu-Leu-His-Lys(PEG1CH2CO-γGlu-eicosanedioic acid)-Leu-Gln-Thr-Tyr-Pro-Arg-Thr-Asn-Thr-Gly-Ser-Gly-Thr-Pro-NH2] | 4.6 pM
CC(C)C[C@H](NC(=O)[C@H](CCCCN)NC(=O)CNC(=O)[C@H](CC(C)C)NC(=O)[C@@H](NC(=O)[C@@H]1CSSC[C@H](N)C(=O)N[C@@H](CO)C(=O)N[C@@H](CC(N)=O)C(=O)N[C@@H](CC(C)C)C(=O)N[C@@H](CO)C(=O)N[C@@H]([C@@H](C)O)C(=O)N1)C(C)C)C(=O)N[C@@H](CO)C(=O)N[C@@H](CCC(N)=O)C(=O)N[C@@H](CCC(=O)O)C(=O)N[C@@H](CC(C)C)C(=O)N[C@@H](Cc1c[nH]cn1)C(=O)N[C@@H](CCCCNC(=O)COCCOCCNC(=O)CC[C@H](NC(=O)CCCCCCCCCCCCCCCCCCC(=O)O)C(=O)O)C(=O)N[C@@H](CC(C)C)C(=O)N[C@@H](CCC(N)=O)C(=O)N[C@H](C(=O)N[C@@H](Cc1ccc(O)cc1)C(=O)N1CCC[C@H]1C(=O)N[C@@H](CCCNC(=N)N)C(=O)N[C@H](C(=O)N[C@@H](CC(N)=O)C(=O)N[C@H](C(=O)NCC(=O)N[C@@H](CO)C(=O)NCC(=O)N[C@H](C(=O)N1CCC[C@H]1C(N)=O)[C@@H](C)O)[C@@H](C)O)[C@@H](C)O)[C@@H](C)O [Compound 2, Cys-Ser-Asn-Leu-Ser-Thr-Cys-Val-Leu-Gly-Lys-Leu-Ser-Gln-Glu-Leu-His-Lys(PEG2CH2CO-γGlu-eicosanedioic acid)-Leu-Gln-Thr-Tyr-Pro-Arg-Thr-Asn-Thr-Gly-Ser-Gly-Thr-Pro-NH2] | 4.1 pM

Same assay, conditions: relative to Salmon Calcitonin = 100.0; HEK293 CT-R cAMP

SMILES | Relative Activity%
CC(C)C[C@H](NC(=O)[C@H](CCCCN)NC(=O)CNC(=O)[C@H](CC(C)C)NC(=O)[C@@H](NC(=O)[C@@H]1CSSC[C@H](N)C(=O)N[C@@H](CO)C(=O)N[C@@H](CC(N)=O)C(=O)N[C@@H](CC(C)C)C(=O)N[C@@H](CO)C(=O)N[C@@H]([C@@H](C)O)C(=O)N1)C(C)C)C(=O)N[C@@H](CO)C(=O)N[C@@H](CCC(N)=O)C(=O)N[C@@H](CCC(=O)O)C(=O)N[C@@H](CC(C)C)C(=O)N[C@@H](Cc1c[nH]cn1)C(=O)N[C@@H](CCCCNC(=O)CNC(=O)CNC(=O)CNC(=O)CNC(=O)CNC(=O)CNC(=O)CC[C@H](NC(=O)CCCCCCCCCCCCCCCCCCC(=O)O)C(=O)O)C(=O)N[C@@H](CC(C)C)C(=O)N[C@@H](CCC(N)=O)C(=O)N[C@H](C(=O)N[C@@H](Cc1ccc(O)cc1)C(=O)N1CCC[C@H]1C(=O)N[C@@H](CCCNC(=N)N)C(=O)N[C@H](C(=O)N[C@@H](CC(N)=O)C(=O)N[C@H](C(=O)NCC(=O)N[C@@H](CO)C(=O)NCC(=O)N[C@H](C(=O)N1CCC[C@H]1C(N)=O)[C@@H](C)O)[C@@H](C)O)[C@@H](C)O)[C@@H](C)O [Compound 15] | 146.2%
CC(C)C[C@H](NC(=O)[C@H](CCCCN)NC(=O)CNC(=O)[C@H](CC(C)C)NC(=O)[C@@H](NC(=O)[C@@H]1CSSC[C@H](N)C(=O)N[C@@H](CO)C(=O)N[C@@H](CC(N)=O)C(=O)N[C@@H](CC(C)C)C(=O)N[C@@H](CO)C(=O)N[C@@H]([C@@H](C)O)C(=O)N1)C(C)C)C(=O)N[C@@H](CO)C(=O)N[C@@H](CCC(N)=O)C(=O)N[C@@H](CCC(=O)O)C(=O)N[C@@H](CC(C)C)C(=O)N[C@@H](Cc1c[nH]cn1)C(=O)N[C@@H](CCCCNC(=O)CNC(=O)CNC(=O)CC[C@H](NC(=O)CCCCCCCCCCCCCCCCCCC(=O)O)C(=O)O)C(=O)N[C@@H](CC(C)C)C(=O)N[C@@H](CCC(N)=O)C(=O)N[C@H](C(=O)N[C@@H](Cc1ccc(O)cc1)C(=O)N1CCC[C@H]1C(=O)N[C@@H](CCCNC(=N)N)C(=O)N[C@H](C(=O)N[C@@H](CC(N)=O)C(=O)N[C@H](C(=O)NCC(=O)N[C@@H](CO)C(=O)NCC(=O)N[C@H](C(=O)N1CCC[C@H]1C(N)=O)[C@@H](C)O)[C@@H](C)O)[C@@H](C)O)[C@@H](C)O [Compound 11] | 220.9%
CC(C)C[C@H](NC(=O)[C@H](CCCCN)NC(=O)CNC(=O)[C@H](CC(C)C)NC(=O)[C@@H](NC(=O)[C@@H]1CSSC[C@H](N)C(=O)N[C@@H](CO)C(=O)N[C@@H](CC(N)=O)C(=O)N[C@@H](CC(C)C)C(=O)N[C@@H](CO)C(=O)N[C@@H]([C@@H](C)O)C(=O)N1)C(C)C)C(=O)N[C@@H](CO)C(=O)N[C@@H](CCC(N)=O)C(=O)N[C@@H](CCC(=O)O)C(=O)N[C@@H](CC(C)C)C(=O)N[C@@H](Cc1c[nH]cn1)C(=O)N[C@@H](CCCCNC(=O)COCCOCCNC(=O)COCCOCCNC(=O)CC[C@H](NC(=O)CCCCCCCCCCCCCCCCC(=O)O)C(=O)O)C(=O)N[C@@H](CC(C)C)C(=O)N[C@@H](CCC(N)=O)C(=O)N[C@H](C(=O)N[C@@H](Cc1ccc(O)cc1)C(=O)N1CCC[C@H]1C(=O)N[C@@H](CCCNC(=N)N)C(=O)N[C@H](C(=O)N[C@@H](CC(N)=O)C(=O)N[C@H](C(=O)NCC(=O)N[C@@H](CO)C(=O)NCC(=O)N[C@H](C(=O)N1CCC[C@H]1C(N)=O)[C@@H](C)O)[C@@H](C)O)[C@@H](C)O)[C@@H](C)O [Compound 19, Cys-Ser-Asn-Leu-Ser-Thr-Cys-Val-Leu-Gly-Lys-Leu-Ser-Gln-Glu-Leu-His-Lys(AEEA-AEEA-γGlu-octadecanedioic acid)-Leu-Gln-Thr-Tyr-P ro-Arg-Thr-Asn-Thr-Gly-Ser-Gly-Thr-Pro-NH2] | 256.8%

From patent EP4691482A1, “LONG-ACTING CALCITONIN ANALOG” (Chengdu Aoda Biotechnology Co., Ltd., priority 2023, dated 2024)
